3 molecules from publication PMC12900513 can be followed below.

By UniProt entry, the sequences of proteins in these tests, tags left out. Where a name states a change or a piece, a line headed by the entry shows the natural chain unless it says otherwise. Chains listed by the source or under a name are the forms on record and can include a tag or linker. Residues count along the entry.
UniProt Q9H694: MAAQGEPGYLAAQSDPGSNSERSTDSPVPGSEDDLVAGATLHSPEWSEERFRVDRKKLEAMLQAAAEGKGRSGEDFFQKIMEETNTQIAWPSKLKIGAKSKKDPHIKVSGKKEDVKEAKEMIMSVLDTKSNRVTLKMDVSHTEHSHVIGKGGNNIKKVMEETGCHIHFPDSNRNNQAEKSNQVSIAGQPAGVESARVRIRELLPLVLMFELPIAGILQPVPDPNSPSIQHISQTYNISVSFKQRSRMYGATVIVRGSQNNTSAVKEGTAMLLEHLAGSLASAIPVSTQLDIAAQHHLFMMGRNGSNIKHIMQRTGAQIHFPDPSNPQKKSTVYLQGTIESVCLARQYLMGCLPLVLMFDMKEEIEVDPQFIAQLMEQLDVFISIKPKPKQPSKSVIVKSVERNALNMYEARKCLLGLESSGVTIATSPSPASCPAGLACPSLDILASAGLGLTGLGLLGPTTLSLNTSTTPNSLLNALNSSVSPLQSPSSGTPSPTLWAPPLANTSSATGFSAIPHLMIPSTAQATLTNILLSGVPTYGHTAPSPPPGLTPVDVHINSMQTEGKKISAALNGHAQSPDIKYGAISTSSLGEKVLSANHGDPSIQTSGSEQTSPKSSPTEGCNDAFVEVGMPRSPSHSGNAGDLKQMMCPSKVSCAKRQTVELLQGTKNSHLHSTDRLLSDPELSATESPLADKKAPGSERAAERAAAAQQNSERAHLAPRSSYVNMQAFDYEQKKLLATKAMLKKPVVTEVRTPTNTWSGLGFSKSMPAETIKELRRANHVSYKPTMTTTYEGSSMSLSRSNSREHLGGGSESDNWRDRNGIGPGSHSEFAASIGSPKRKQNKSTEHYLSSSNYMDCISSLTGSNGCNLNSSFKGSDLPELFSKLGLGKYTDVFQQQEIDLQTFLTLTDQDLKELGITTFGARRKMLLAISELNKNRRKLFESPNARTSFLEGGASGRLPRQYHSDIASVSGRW
UniProt P98161: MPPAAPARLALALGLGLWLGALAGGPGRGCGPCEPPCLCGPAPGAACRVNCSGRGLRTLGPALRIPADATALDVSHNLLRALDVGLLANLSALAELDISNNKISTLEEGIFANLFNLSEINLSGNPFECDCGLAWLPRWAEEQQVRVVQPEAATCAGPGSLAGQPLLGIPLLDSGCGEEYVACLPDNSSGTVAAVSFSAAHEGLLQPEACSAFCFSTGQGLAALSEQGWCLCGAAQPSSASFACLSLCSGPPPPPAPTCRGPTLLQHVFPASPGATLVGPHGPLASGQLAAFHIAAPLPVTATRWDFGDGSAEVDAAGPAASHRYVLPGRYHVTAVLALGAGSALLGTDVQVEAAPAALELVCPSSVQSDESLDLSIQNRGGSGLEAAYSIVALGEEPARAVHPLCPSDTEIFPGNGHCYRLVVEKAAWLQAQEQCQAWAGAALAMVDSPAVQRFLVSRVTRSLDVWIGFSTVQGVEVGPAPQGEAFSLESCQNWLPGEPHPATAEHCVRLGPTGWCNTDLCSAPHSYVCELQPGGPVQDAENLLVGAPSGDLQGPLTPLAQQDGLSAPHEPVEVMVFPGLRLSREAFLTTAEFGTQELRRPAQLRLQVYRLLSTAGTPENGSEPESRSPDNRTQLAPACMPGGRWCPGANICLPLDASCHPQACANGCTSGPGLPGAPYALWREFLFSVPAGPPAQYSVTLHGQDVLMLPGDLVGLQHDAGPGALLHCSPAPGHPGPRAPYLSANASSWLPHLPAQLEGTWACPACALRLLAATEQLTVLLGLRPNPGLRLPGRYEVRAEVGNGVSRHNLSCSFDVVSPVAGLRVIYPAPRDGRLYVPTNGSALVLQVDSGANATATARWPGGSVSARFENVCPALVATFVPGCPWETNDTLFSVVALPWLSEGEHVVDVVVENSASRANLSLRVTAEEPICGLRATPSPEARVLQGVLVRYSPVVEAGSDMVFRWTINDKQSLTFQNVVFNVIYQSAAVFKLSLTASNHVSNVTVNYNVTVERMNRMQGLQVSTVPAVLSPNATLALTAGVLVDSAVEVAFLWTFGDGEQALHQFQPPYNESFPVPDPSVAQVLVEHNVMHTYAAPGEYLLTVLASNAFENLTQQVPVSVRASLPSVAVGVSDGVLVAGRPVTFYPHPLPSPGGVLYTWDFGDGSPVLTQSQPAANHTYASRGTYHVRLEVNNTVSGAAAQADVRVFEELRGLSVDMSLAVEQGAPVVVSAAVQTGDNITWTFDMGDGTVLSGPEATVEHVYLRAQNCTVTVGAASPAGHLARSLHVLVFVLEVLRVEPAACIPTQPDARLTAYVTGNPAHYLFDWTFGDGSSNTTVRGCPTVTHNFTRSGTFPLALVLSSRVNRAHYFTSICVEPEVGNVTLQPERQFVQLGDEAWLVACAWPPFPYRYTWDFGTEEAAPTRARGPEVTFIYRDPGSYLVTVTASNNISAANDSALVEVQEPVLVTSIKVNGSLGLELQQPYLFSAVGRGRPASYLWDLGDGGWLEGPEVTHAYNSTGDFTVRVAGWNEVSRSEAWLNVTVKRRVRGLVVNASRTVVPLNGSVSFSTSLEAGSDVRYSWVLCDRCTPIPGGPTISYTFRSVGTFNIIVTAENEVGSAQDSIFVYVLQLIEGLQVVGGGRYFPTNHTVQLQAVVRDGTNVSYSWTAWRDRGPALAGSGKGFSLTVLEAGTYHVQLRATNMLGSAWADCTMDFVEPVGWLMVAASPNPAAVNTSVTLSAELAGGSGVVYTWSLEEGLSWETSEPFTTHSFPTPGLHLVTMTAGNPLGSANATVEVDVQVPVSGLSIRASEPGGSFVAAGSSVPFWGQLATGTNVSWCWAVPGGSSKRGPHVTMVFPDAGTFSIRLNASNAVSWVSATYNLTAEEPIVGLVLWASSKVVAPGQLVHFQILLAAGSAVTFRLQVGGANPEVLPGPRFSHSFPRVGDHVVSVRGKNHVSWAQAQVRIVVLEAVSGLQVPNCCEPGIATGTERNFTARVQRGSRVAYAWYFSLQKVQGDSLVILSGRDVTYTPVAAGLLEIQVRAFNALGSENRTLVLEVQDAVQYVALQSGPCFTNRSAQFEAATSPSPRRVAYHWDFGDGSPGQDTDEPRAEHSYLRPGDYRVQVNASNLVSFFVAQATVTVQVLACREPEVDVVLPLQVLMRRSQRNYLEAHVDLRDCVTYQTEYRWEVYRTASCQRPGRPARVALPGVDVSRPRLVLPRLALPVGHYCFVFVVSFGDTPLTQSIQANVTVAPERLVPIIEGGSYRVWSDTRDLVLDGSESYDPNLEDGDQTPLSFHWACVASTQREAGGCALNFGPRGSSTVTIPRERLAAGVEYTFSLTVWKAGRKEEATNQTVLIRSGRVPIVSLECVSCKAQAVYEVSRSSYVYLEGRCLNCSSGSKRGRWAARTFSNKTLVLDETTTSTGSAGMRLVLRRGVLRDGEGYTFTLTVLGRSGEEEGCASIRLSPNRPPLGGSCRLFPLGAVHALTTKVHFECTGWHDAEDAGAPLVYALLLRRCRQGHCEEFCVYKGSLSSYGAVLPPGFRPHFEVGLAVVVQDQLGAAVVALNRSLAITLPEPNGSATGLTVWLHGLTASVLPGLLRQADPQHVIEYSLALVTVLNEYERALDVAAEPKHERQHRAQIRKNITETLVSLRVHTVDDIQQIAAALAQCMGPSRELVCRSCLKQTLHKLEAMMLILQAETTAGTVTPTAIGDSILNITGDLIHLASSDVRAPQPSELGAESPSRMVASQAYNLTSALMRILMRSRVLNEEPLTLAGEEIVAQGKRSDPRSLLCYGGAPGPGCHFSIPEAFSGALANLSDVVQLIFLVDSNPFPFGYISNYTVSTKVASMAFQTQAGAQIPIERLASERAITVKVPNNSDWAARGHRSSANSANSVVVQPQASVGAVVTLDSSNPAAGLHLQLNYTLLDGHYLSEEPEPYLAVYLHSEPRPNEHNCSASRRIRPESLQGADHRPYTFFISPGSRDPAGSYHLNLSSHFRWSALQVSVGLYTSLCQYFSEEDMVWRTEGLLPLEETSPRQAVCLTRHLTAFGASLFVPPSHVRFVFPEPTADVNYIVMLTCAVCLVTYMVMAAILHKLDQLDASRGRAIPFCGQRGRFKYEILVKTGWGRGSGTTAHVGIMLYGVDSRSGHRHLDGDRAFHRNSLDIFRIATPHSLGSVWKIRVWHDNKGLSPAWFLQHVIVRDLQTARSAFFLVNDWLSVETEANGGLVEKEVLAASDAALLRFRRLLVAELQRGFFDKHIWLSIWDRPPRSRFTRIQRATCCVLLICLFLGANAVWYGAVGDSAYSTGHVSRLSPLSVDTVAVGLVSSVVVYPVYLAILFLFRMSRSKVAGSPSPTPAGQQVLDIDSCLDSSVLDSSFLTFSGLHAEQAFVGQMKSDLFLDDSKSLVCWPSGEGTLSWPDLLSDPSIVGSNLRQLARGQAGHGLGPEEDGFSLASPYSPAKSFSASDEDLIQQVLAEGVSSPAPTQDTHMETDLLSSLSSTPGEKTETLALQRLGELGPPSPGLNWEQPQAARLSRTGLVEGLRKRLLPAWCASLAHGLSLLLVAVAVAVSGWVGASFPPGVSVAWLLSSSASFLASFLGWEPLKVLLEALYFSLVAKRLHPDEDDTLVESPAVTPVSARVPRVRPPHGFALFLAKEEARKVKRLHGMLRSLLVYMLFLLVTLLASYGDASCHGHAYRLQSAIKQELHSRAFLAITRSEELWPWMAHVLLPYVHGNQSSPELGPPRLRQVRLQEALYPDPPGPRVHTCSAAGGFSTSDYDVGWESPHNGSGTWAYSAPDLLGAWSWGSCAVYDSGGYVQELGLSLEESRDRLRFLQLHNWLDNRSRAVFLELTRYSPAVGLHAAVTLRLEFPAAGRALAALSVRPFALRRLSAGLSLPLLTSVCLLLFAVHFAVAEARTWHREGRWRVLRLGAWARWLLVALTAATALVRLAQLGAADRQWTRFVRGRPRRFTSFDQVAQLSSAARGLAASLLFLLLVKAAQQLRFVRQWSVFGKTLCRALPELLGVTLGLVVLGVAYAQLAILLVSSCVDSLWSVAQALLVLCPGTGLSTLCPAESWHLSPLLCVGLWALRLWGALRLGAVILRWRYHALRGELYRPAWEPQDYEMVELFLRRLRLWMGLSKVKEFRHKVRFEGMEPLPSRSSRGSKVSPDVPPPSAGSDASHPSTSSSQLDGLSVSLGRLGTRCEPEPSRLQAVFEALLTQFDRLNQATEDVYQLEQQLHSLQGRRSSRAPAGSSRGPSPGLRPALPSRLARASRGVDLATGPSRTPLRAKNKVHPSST
PC1-HA (full-length HA-tagged Polycystin-1): residues 24-4303 of P98161
GST-CT1 (mammalian GST fusion, co-expressed in cells): residues 4107-4303 of P98161
GST-CT1-R4227X (mammalian GST fusion, co-expressed in cells): residues 4107-4226 of P98161

Test [1] has as its target endogenous BICC1 in UCL93 cells (human (endogenous in UCL93)) (UniProt Q9H694). The experiment in a line: co-IP; endogenous proteins in lysates of UCL93 human kidney epithelial cells; IP with rabbit anti-PC1 (2b7), anti-BICC1 or anti-PC2.
Test [2] concerns the target T1, GST-NT2 1-100 (bacterial, purified) (UniProt Q13563).
T1 sequence: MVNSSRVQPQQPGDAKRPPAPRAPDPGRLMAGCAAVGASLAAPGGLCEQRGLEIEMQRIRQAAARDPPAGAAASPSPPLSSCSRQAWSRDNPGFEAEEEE
Nature of the test: pull-down; in vitro: 1–2 µg bacterial GST fusion protein (bait) and 10 µl in vitro translated myc-mBicc1 in 300 μl 1×TBST with 0.2% Tween20, 1 hour at room temperature, Glutathione Sepharose 4B; only the target purified.

The target in test [3] is T2, GST-NT2 (bacterial, purified) (UniProt Q13563).
T2 sequence: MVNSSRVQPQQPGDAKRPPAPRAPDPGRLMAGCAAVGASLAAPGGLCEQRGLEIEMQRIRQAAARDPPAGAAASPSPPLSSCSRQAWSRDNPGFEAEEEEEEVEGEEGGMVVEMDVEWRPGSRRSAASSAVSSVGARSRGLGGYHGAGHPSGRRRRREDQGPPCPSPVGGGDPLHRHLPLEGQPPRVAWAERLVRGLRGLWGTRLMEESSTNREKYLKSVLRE
The description is as above.

Test [4] has as its target GST-CT1 (bacterial, purified) (UniProt P98161). Described as above.
Test [5] addresses T3, GST-NT2 101-223 (bacterial, purified) (UniProt Q13563).
T3 sequence: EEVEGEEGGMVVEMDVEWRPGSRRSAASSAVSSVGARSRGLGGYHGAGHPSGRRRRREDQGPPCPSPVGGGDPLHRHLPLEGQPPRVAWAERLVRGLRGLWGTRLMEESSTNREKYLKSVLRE
Described as above.

In test [6] the target is T4, GST-CT2 (bacterial, purified) (UniProt Q13563).
T4 sequence: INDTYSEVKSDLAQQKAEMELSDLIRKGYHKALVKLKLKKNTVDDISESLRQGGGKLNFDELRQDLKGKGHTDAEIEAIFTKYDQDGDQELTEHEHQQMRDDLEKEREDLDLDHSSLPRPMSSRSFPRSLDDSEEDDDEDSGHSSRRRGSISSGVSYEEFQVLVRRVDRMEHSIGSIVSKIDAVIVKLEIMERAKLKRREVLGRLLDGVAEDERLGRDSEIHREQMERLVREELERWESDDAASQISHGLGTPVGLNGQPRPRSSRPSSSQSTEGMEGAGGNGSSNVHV
Nature of the test: condition: 1–2 µg GST fusion protein and 10 µl myc-mBicc1 IVT in 300 μl; pull-down; in vitro: 1–2 µg bacterial GST fusion protein (bait) and 10 µl in vitro translated myc-mBicc1 in 300 μl 1×TBST with 0.2% Tween20, 1 hour at room temperature, Glutathione Sepharose 4B; only the target purified.

In test [7] the target is GST-CT1-R4227X (bacterial, purified) (UniProt P98161). Described as above.
Test [8] has as its target PC1-HA (full-length HA-tagged Polycystin-1) (UniProt P98161). The experiment in a line: co-IP; myc-mBicc1 constructs co-expressed with HA-tagged PC1 or PC2 in HEK-293 cells; the HA-tagged protein as bait.
Test [9] has as its target T5, PC2-HA (full-length HA-tagged Polycystin-2) (UniProt Q13563).
T5 sequence: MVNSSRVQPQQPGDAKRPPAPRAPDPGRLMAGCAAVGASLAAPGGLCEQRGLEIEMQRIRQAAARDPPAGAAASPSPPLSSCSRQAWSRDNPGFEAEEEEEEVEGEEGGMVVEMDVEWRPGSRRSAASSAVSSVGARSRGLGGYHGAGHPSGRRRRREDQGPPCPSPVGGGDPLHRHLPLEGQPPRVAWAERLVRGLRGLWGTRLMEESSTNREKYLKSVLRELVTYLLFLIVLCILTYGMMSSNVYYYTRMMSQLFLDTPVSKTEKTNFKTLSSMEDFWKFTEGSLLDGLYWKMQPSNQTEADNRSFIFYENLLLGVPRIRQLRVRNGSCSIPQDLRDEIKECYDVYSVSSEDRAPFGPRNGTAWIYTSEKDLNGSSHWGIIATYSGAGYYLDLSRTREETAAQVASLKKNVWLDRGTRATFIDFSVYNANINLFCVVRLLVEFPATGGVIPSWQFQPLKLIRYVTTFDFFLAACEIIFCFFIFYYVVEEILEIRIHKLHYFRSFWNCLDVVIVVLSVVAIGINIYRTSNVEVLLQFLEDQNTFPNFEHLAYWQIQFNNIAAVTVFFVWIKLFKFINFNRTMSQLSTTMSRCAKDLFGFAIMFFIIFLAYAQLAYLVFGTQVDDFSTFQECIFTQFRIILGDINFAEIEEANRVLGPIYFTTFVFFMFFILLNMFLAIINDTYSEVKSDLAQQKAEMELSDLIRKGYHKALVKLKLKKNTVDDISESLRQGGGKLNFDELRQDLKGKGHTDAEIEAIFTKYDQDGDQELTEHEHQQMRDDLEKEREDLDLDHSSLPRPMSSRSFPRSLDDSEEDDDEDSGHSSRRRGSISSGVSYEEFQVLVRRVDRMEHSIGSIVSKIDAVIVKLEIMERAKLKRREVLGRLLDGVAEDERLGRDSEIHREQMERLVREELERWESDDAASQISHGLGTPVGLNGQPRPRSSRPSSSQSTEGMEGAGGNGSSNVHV
The test is described as above.

For test [10], the target named is T6, GST-NT2 (mammalian GST fusion, co-expressed in cells) (UniProt Q13563).
T6 sequence: T2 sequence
Nature of the test: pull-down; GST pull-down from cells co-expressing GST-tagged PC1 or PC2 domains (bait) and myc-mBicc1; HEK-293.

For test [11], the target named is GST-CT1-R4227X (mammalian GST fusion, co-expressed in cells) (UniProt P98161). The test is described as above.
Test [12] has as its target GST-CT1 (mammalian GST fusion, co-expressed in cells) (UniProt P98161). The test is described as above.

No constants are given. Whether binding was seen depends on the method and setting. In cells and extracts the contact can be indirect. Some entries that bind do so weakly or less than the wild type. For part of these data: Tags and fused reporters may be left off the sequences shown.

B1: endogenous PC2 (Polycystin-2) in UCL93 cells (protein, UniProt Q13563 1-968)
chain: T5 sequence
Turning to B1, in test [1], the binding result was “binds”.

B2: myc-mBicc1 IVT (in vitro translated) (protein, UniProt Q99MQ1 1-977)
chain: MASQSEPGYLAAAQSDPGSNSERSTDSPVAGSEDDLVAAAPLLHSPEWSEERFRVDRKKLEAMLQAAAEGKGRSGEDFFQKIMEETNTQIAWPSKLKIGAKSKKDPHIKVSGKKEDVKEAKEMIMSVLDTKSNRVTLKMDVSHTEHSHVIGKGGNNIKKVMEDTGCHIHFPDSNRNNQAEKSNQVSIAGQPAGVESARARIRELLPLVLMFELPIAGILQPVPDPNTPSIQHISQTYSVSVSFKQRSRMYGATVTVRGSQNNTNAVKEGTAMLLEHLAGSLASAIPVSTQLDIAAQHHLFMMGRNGSNVKHIMQRTGAQIHFPDPSNPQKKSTVYLQGTIESVCLARQYLMGCLPLVLMFDMKEDIEVDPQVIAQLMEQLDVFISIKPKPKQPSKSVIVKSVERNALNMYEARKCLLGLESSGVSIATSLSPASCPAGLACPSLDILASAGLGLTGLGLLGPTTLSLNTSATPNSLLNALNTSVSPLQSSSSGTPSPTLWAPPIANTASATGFSTIPHLMLPSTAQATLTNILLSGVPTYGHTAPSPPPGLTPVDVHINSMQTEGKNISASINGHVQPANMKYGPLSTSSLGEKVLSSNHGDPSMQTAGPEQASPKSNSVEGCNDAFVEVGMPRSPSHSGNAGDLKQMLGASKVSCAKRQTVELLQGTKNSHLHGTDRLLSDPELSATESPLADKKAPGSERAAERAAAAQQKSERARLASQPTYVHMQAFDYEQKKLLATKAMLKKPVVTEVRTPTNTWSGLGFSKSMPAETIKELRRANHVSYKPTMTTAYEGSSLSLSRSSSREHLASGSESDNWRDRNGIGPMGHSEFSAPIGSPKRKQNKSREHYLSSSNYMDCISSLTGSNGCNLNSCFKGSDLPELFSKLGLGKYTDVFQQQEIDLQTFLTLTDQDLKELGITTFGARRKMLLAISELSKNRRKLFEPPNASCTSFLEGGASGRLPRQYHSDIASVSGRW
B2: the binding entry is listed as “binds” in [2]; “binds” in test [3]; “binds” in test [4]; “binds” in test [5]; “no binding” in test [6]; “no binding” in [7].

B3: myc-mBicc1 (full-length, transfected in HEK-293 cells) (protein, UniProt Q99MQ1 1-977)
chain: B2 chain
For the molecule B3, the binding result in test [8] is “binds”; in test [9], “binds”; in [10], “binds”; in [11], “no binding”; in test [12] it was “binds”.
